Target: T1, rhEphA5 antigen (Homo sapiens, UniProt P54756)
T1 construct: purchased R and D systems 3036-A5
Experiment: kd (1/s)
Protocol: Table printed on a drawing sheet, FIG. 13
Head of the field: kd (1/s)
The patent's description of the figure: FIG. 13 is a table illustrating the single cycle kinetic parameters of chimeric (VH0/VK0) and humanized 11C12 variants (tested as cell culture supernatants) binding to rhEphA5 antigen as determined using the Biacore T200. The relative KD was calculated by dividing the KD of the humanized variant by that of the VH0/VK0 (top row) assayed in the same experiment. The variants marked with ‘*’ have KD values that are within two-fold of, or are better than, the chimeric antibody. The chimeric and selected variants marked in ‘#’ were identified as the main leads for purification. […]
Where the first naming reader finds the target: description_of_the_figure: humanized 11C12 variants (tested as cell culture supernatants) binding to rhEphA5 antigen as determined using the Biacore T200

T1 sequence (P54756 25-1037 limits assumed): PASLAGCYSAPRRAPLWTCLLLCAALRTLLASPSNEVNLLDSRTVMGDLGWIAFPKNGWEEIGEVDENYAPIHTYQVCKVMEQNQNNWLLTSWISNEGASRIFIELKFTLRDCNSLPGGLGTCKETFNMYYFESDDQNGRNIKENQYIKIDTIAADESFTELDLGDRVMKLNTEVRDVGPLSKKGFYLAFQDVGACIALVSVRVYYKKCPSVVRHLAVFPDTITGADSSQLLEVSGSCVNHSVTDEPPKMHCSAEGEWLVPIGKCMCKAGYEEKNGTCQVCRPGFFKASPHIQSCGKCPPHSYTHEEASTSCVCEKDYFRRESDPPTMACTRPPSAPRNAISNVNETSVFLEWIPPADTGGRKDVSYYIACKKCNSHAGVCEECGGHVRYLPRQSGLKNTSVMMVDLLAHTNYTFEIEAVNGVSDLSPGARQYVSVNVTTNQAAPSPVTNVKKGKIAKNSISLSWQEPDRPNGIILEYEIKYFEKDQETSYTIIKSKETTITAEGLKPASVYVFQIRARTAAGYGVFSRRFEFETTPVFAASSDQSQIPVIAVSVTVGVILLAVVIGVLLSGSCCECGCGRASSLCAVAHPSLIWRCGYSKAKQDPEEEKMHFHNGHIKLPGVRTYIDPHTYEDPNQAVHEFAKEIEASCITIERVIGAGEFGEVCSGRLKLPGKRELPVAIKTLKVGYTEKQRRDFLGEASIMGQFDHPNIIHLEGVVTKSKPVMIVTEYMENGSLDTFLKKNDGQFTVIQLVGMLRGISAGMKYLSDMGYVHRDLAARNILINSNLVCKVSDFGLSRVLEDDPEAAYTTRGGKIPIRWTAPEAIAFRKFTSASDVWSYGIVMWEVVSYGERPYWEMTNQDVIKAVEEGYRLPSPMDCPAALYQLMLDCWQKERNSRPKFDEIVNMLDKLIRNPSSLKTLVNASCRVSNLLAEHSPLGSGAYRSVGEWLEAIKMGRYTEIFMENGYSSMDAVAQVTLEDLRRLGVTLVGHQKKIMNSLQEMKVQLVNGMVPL

B1: VH1/VK0: control antibody produced by transient transfection, humanized VH1 with chimeric VK0 (protein)
heavy chain: EVTLVESGGGLVQPGGSRKLSCAASGFTFSTFGIHWVRQAPGKGLEWVAYISGASTTIYYADTVKGRFTISRDNSKNTLYLQMNSLRSEDTAMYYCARYGTSFPYGLDYWGQGTSVTVSSASTKGPSVFPLAPSSKSTSGGTAALGCLVKDYFPEPVTVSWNSGALTSGVHTFPAVLQSSGLYSLSSVVTVPSSSLGTQTYICNVNHKPSNTKVDKRV[letters of human IgG1 Fc left out]
light chain: DIVMTQSPGSLAVSLGQRATISCKASQSVDYDGDSYMNWYQQKPGQPPKLLIYGASNLESGIPARFSGSGSGTDFTLNIHPVEEEDAASYYCQQSNEDPFTFGSGTKLEIKRTVAAPSVFIFPPSDEQLKSGTASVVCLLNNFYPREAKVQWKVDNALQSGNSQESVTEQDSKDSTYSLSSTLTLSKADYEKHKVYACEVTHQGLSSPVTKSFNRGEC
kd: 0.00127 s⁻¹

From patent publication US12662541B2, “Antibody-drug conjugates against the receptor tyrosine kinase EphA5” (Rutgers, The State University of New Jersey, priority 2021, dated 2026)
